In the experiment the target is T1, ClpB, wild type (E. coli, UniProt P63284 1-857).
T1 construct: ClpB, E. coli, wild type; also called wt ClpB; wt-ClpB; source: E. coli BB4561, purified as previously described
Nature of the experiment: co-sedimentation; G6PDH50 aggregates (1 μM) incubated 10 min at 30 °C in refolding buffer with DnaJ, 3.5 μM wt DnaK or variant, with or without 5 μM wt or mutant ClpB, 3 mM ATP with regenerating system, no GrpE; 122,000 x g, 40 min, 4 °C; pellets on SDS-PAGE or NuPAGE, densitometry, controls with native G6PDH subtracted. The conditions noted are these: both partners purified.

B1: DnaK_(D526A) (natural protein)
chain: not shown
notes: DnaK, E. coli, with D526A (hinge of the lid)
In the case of B1, the binding result was “binds”.

The values are drawn from PMC5895705, “Activation of the DnaK-ClpB Complex is Regulated by the Properties of the Bound Substrate” (Scientific Reports, 2018).
